# According to the supplement of paper PMC9446081:
# The campaign covered roughly 39,000 compounds. About 220 (0.56%) showed activity. The list shows a part of the results.
# Test system: Escherichia coli K-12 BW25113
# Test: relative growth (OD600 normalised to plate interquartile mean) (fraction); higher = less growth inhibition, active = 0.2 or less
# Conditions: 50 µM; LB; incubation time: overnight (16-24 h)
# 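Also: static incubation at 37 °C against the wild-type strain, values averaged over two biological replicates.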
row,Structure (SMILES),relative growth
1,COc1cccc(C#Cc2ccc([C@H]3[C@@H](CO)N4C(=O)CN(S(=O)(=O)c5ccccc5C)C[C@H]34)cc2)c1,inactive: 1.02
2,CC(C)NC(=O)Nc1ccc2c(c1)C(=O)N([C@H](C)CO)C[C@H](C)[C@H](CN(C)Cc1ccc(Cl)c(Cl)c1)OCCCC[C@H](C)O2,inactive: 0.995
3,CC1CCC2(OC1)OC1CC3C4CCC5CC(O)CCC5(C)C4CCC3(C)C1C2C (configuration not stated),inactive: 0.924
4,CCNC(=O)c1cc2c(c(-c3cccc(-c4cc5ccccc5o4)c3)n1)[C@@H](CCO)N(C(=O)NC(C)C)C2,inactive: 1.03
5,COc1ccc(NC(=O)Nc2ccc3c(c2)C(=O)N([C@@H](C)CO)C[C@H](C)[C@H](CN(C)S(=O)(=O)c2ccc(F)cc2)OCCCC[C@@H](C)O3)cc1,inactive: 1.02
6,CC(C)NC(=O)N(C)C[C@@H]1Oc2c(NC(=O)C3CCOCC3)cccc2C(=O)N([C@H](C)CO)C[C@@H]1C,inactive: 0.991
7,C=CC[C@@H](CC(=O)NCCO)C(=O)NC[C@H](OC(=O)[C@@H](CC=C)CC(=O)OC(C)(C)C)c1ccccc1,inactive: 0.921
8,Cc1ccc(S(=O)(=O)N(C)C[C@@H]2Oc3ccc(NC(=O)Nc4cccc5ccccc45)cc3CC(=O)N([C@H](C)CO)C[C@@H]2C)cc1,inactive: 1.03
9,CC(=O)c1ccc2ccccc2c1O,inactive: 1
10,COc1ccc(NC(=O)N(C)C[C@@H]2Oc3ccc(NC(=O)CCCN(C)C)cc3C(=O)N([C@H](C)CO)C[C@H]2C)cc1,inactive: 0.89
11,C[C@H]1CN([C@@H](C)CO)C(=O)c2cc(NC(=O)Nc3cccc4ccccc34)ccc2O[C@@H]1CN(C)Cc1ccc(C(F)(F)F)cc1,inactive: 1.06
12,CC1=C(/C=C/C(C)=C/C=C/C(C)=C/C=C/C=C(C)/C=C/C=C(C)/C=C/[C@@]23O[C@]2(C)C[C@@H](O)CC3(C)C)C(C)(C)C[C@H](O)C1,inactive: 0.414
13,Cc1ccc(S(=O)(=O)N(C)C[C@@H]2Oc3ncc(-c4ccncc4)cc3C(=O)N([C@H](C)CO)C[C@H]2C)cc1,inactive: 1.01
14,Cc1ccc(S(=O)(=O)Nc2ccc3c(c2)CC(=O)N([C@H](C)CO)C[C@H](C)[C@H](CN(C)CC2CC2)O3)cc1,inactive: 1.01
15,C[C@@H]1CCCCO[C@@H](CN(C)C(=O)Cc2ccccc2)[C@H](C)CN([C@@H](C)CO)C(=O)c2cc(NC(=O)CCCCCC(=O)Nc3ccccc3N)ccc2O1,inactive: 0.994
16,C[C@H]1CN([C@@H](C)CO)C(=O)Cc2cc(NS(C)(=O)=O)ccc2O[C@H]1CN(C)S(=O)(=O)c1ccc(F)cc1,inactive: 1
17,COc1ccc(NC(=O)N(C)C[C@@H]2Oc3c(NC(=O)c4ccc(-c5nccs5)cc4)cccc3C(=O)N([C@@H](C)CO)C[C@H]2C)cc1,inactive: 0.999
18,Cc1cc2c(cc1N)n(C)c(=O)n2C,inactive: 0.986
19,COc1ccc(S(=O)(=O)Nc2cccc3c2O[C@H](CN(C)S(=O)(=O)c2ccccc2)[C@@H](C)CN([C@H](C)CO)C3=O)cc1,inactive: 0.913
20,C[C@@H]1CCCCO[C@H](CN(C)S(=O)(=O)c2cn(C)cn2)[C@@H](C)CN([C@@H](C)CO)C(=O)c2cc(NS(=O)(=O)c3ccccc3)ccc2O1,inactive: 0.998
21,COc1ccccc1NC(=O)N(C)C[C@H]1OCc2ccccc2-c2c(n(C)c3ccccc23)C(=O)N([C@H](C)CO)C[C@H]1C,inactive: 1.02

row,Structure (SMILES),relative growth
1,Cc1cc(C(=O)O)cc(S(N)(=O)=O)c1,inactive: 1.02
2,CCc1ccc(CNC2CC2)cc1,inactive: 0.973
3,C[C@@H]1CCCCO[C@H](CN(C)Cc2ccccc2)[C@@H](C)CN([C@H](C)CO)C(=O)c2cc(NS(=O)(=O)c3ccc(Cl)cc3)ccc2O1,inactive: 1
4,COc1ccc(NC(=O)Nc2cccc3c2O[C@@H](CN(C)C(=O)Nc2ccc(C(F)(F)F)cc2)[C@@H](C)CN([C@@H](C)CO)C3=O)cc1,inactive: 0.954
5,C[C@H]1CN([C@@H](C)CO)C(=O)c2cccc(NS(C)(=O)=O)c2O[C@H]1CN(C)Cc1ccc(C(F)(F)F)cc1,inactive: 0.999
6,C[C@@H]1CCCCO[C@H](CN(C)Cc2ccc(Cl)c(Cl)c2)[C@@H](C)CN([C@@H](C)CO)C(=O)c2cc(NS(=O)(=O)c3cn(C)cn3)ccc2O1,inactive: 0.829
7,C=CC(C)(C)c1[nH]c2ccccc2c1C1=C(O)C(=O)C(c2c[nH]c3c(CC=C(C)C)cccc23)=C(O)C1=O,inactive: 1.04
8,C[C@@H]1CN([C@H](C)CO)C(=O)c2cccc(NC(=O)c3ccc(-c4nccs4)cc3)c2O[C@@H]1CN(C)C(=O)Nc1cccc2ccccc12,inactive: 1
9,O=C(C[C@H]1CC[C@H]2[C@@H](COC[C@H](O)CN2C(=O)c2cnccn2)O1)NCc1ccc(Oc2ccccc2)cc1,inactive: 0.985
10,COc1ccc(C#Cc2cnc3c(c2)C(=O)N([C@H](C)CO)C[C@H](C)[C@H](CN(C)S(=O)(=O)c2ccc(C)cc2)O3)cc1OC,inactive: 1.04
11,C[C@H]1CN([C@@H](C)CO)C(=O)c2cc(NS(=O)(=O)c3cn(C)cn3)ccc2O[C@@H]1CN(C)Cc1ccncc1,inactive: 1.01
12,O=C(CN1CCOCC1)NCC[C@@H]1CC[C@H](NC(=O)c2ccc3c(c2)OCO3)[C@@H](CO)O1,inactive: 1.02
13,COCC(=O)N1CC[C@]2(CC1)CN([C@H](CO)c1[nH]c3cc(ccc3c12)OC)S(=O)(=O)C,inactive: 0.984
14,O=C(O)C=CC=Cc1ccccc1,inactive: 0.894
15,NCCc1nc(-c2ccncc2)no1,inactive: 1.04
16,CC(C)CC#Cc1ccc2c(c1)O[C@H](CN(C)C(=O)c1ccccn1)[C@H](C)CN([C@@H](C)CO)S2(=O)=O,inactive: 0.956
17,CC(C)NC(=O)N(C)C[C@H]1Oc2cc(C#Cc3cccc(F)c3)ccc2S(=O)(=O)N([C@@H](C)CO)C[C@@H]1C,inactive: 0.99
18,Cc1ccccc1OCC(O)CO (configuration not stated),inactive: 1.04
19,Cc1ccc(S(=O)(=O)Nc2ccc3c(c2)C(=O)N([C@@H](C)CO)C[C@@H](C)[C@@H](CN(C)CC2CCCCC2)OCCCC[C@@H](C)O3)cc1,inactive: 0.959
20,COc1cccc(CNC(=O)c2cc3c(c(-c4cccc(-c5ccncc5)c4)n2)[C@@H](CCO)N([S@](=O)C(C)(C)C)C3)c1,inactive: 1.01
21,COc1cccc(CN(C)C[C@H]2OCc3ccccc3-c3c(n(C)c4ccccc34)C(=O)N([C@H](C)CO)C[C@H]2C)c1,inactive: 0.995

row,Structure (SMILES),relative growth
1,C[C@H](CO)N1C[C@H](C)[C@@H](CN(C)S(=O)(=O)c2cn(C)cn2)Oc2ccc(NC(=O)Cc3cn(C)c4ccccc34)cc2C1=O,inactive: 1.01
2,C[C@@H]1CN([C@@H](C)CO)C(=O)Cc2cc(NC(=O)Cn3cnnn3)ccc2O[C@@H]1CN(C)CC1CCCCC1,inactive: 0.982
3,O=C(C[C@@H]1C=C[C@H](NC(=O)c2ccc(F)cc2)[C@H](CO)O1)NCc1ccncn1,inactive: 0.992
4,CN1C(=O)c2cc(NC(=O)c3ccc(F)c(F)c3)ccc2OC[C@H]2O[C@H](CC(=O)N3CCOCC3)CC[C@@H]21,inactive: 0.994
5,CC(C)NC(=O)N(C)C[C@H]1Oc2cc(-c3ccccc3F)ccc2S(=O)(=O)N([C@@H](C)CO)C[C@@H]1C,inactive: 0.998
6,C[C@H]1CN([C@@H](C)CO)C(=O)c2cc(NS(C)(=O)=O)ccc2O[C@@H]1CN(C)S(C)(=O)=O,inactive: 0.988
7,C[C@@H]1CN([C@@H](C)CO)S(=O)(=O)c2ccc(Br)cc2O[C@@H]1CN(C)Cc1ccc2c(c1)OCO2,inactive: 1.01
8,COc1ccc(NC(=O)N(C)C[C@@H]2Oc3ncc(C#C[C@H](C)O)cc3C(=O)N([C@H](C)CO)C[C@H]2C)cc1,inactive: 0.978
9,CCOC(=O)[C@@H]1CCC[C@@H]1N,inactive: 1.02
10,C[C@@H]1CCCCO[C@H](CN(C)S(=O)(=O)c2ccc(Cl)cc2)[C@@H](C)CN([C@H](C)CO)C(=O)c2cc(NC(=O)CCCCCC(=O)Nc3ccccc3N)ccc2O1,inactive: 0.948
11,COCC(=O)N1CC[C@]2(CC1)CN([C@@H](CO)c1[nH]c3cc(ccc3c12)OC)C(=O)Nc1ccccc1F,inactive: 1.02
12,C[C@@H]1CCCCO[C@H](CN(C)Cc2ccncc2)[C@@H](C)CN([C@H](C)CO)C(=O)c2cc(NC(=O)CCC(F)(F)F)ccc2O1,inactive: 1.05
13,C[C@@H]1CCCCO[C@H](CN(C)C(=O)c2ccccc2)[C@@H](C)CN([C@H](C)CO)C(=O)c2cc(NC(=O)Nc3ccccc3)ccc2O1,inactive: 0.984
14,Cc1ccccc1[C@@H](c1ncccc1C)N(C)C(=O)C1CCN(CCOc2ccc3ccccc3c2)CC1,inactive: 0.996
15,C[C@@H]1CCCCO[C@H](CN(C)S(C)(=O)=O)[C@H](C)CN([C@@H](C)CO)C(=O)c2cc(NS(=O)(=O)c3cccs3)ccc2O1,inactive: 0.986
16,C[C@@H]1CN([C@H](C)CO)C(=O)c2cc(-c3cccnc3)cnc2O[C@H]1CN(C)C(=O)Nc1ccc2c(c1)OCO2,inactive: 0.996
17,COCC#Cc1ccc2c(c1)O[C@@H](CN(C)S(=O)(=O)c1cccc(OC)c1)[C@H](C)CN([C@H](C)CO)S2(=O)=O,inactive: 1.03
18,C[C@@H]1CN([C@H](C)CO)C(=O)Cc2cc(NC(=O)C3CC3)ccc2O[C@@H]1CN(C)Cc1ccc(C(=O)O)cc1,inactive: 0.969
19,CC(C)(C)C(=O)C(Oc1ccc(Cl)cc1)n1ccnc1 (configuration not stated),inactive: 1.04
20,O=C(C[C@H]1CC[C@H](NS(=O)(=O)c2ccc(F)cc2)[C@H](CO)O1)N1CCC(Cc2ccccc2)CC1,inactive: 1
